Test results from ChEMBL document CHEMBL5606460, “ASAP - DENV-2 NS2B-NS3 protease fluorescence single point” (2024).
In all, about 2,000 compounds went through this assay and about 110 (5.5%) showed an effect of 50% or more. The list shows a part of the results.

Target: Genome polyprotein (dengue virus type 2) (UniProt P29990)
[1] = Thailand/16681/1984, Concentration 25.0 uM, Number of replicates 1.0

Structure (SMILES): Cn1oc(C(=O)Nc2cc(Cl)cc(C(=O)NC(C)(C)CO)c2)cc1=O
- inhibition (Thailand/16681/1984, Concentration 49.5 uM, Number of replicates 2.0, Standard deviation 0.8141956117621647 %): -0.341%
- inhibition (Thailand/16681/1984, Concentration 99.01 uM, Number of replicates 2.0, Standard deviation 1.5201786631370027 %): 0.297%
- inhibition (Thailand/16681/1984, Concentration 198.0 uM, Number of replicates 2.0, Standard deviation 2.6564108106217375 %): 1.39%

Structure (SMILES): [N-]=[N+]=NCCOCCOCCOCCNC(=O)C1CCN(c2ccc(C=O)cc2)CC1
- inhibition [1]: 12.9%

Structure (SMILES): O=Cc1ccc(N2CCC(C(=O)N3CCC(O)(c4ccc(Cl)cc4)CC3)CC2)cc1
- inhibition [1]: 12.1%

Structure (SMILES): Cc1nc(C(=O)N2CCC(n3cc(CN)nn3)CC2)c(Cc2ccccc2)s1
- inhibition (Thailand/16681/1984, Concentration 49.5 uM, Number of replicates 2.0, Standard deviation 0.5458000023421373 %): -4.63%
- inhibition (Thailand/16681/1984, Concentration 99.01 uM, Number of replicates 2.0, Standard deviation 0.5815115328475999 %): -4.92%
- inhibition (Thailand/16681/1984, Concentration 198.0 uM, Number of replicates 2.0, Standard deviation 0.6177557995182402 %): -4.78%

Structure (SMILES): CCn1ccnc(NCC(=O)c2c[nH]c3ccccc23)c1=O
- inhibition (Thailand/16681/1984, Concentration 49.5 uM, Number of replicates 2.0, Standard deviation 3.110943672243224 %): -2.1%
- inhibition (Thailand/16681/1984, Concentration 99.01 uM, Number of replicates 2.0, Standard deviation 3.207728615150648 %): -2.61%
- inhibition (Thailand/16681/1984, Concentration 198.0 uM, Number of replicates 2.0, Standard deviation 4.205614512115071 %): -0.397%

Structure (SMILES): Cc1nc(C2CCN(C(=O)c3ccn([C@H]4CCCNC4)n3)CC2)n[nH]1
- inhibition (Thailand/16681/1984, Concentration 49.5 uM, Number of replicates 2.0, Standard deviation 0.8219326667939915 %): -4.42%
- inhibition (Thailand/16681/1984, Concentration 99.01 uM, Number of replicates 2.0, Standard deviation 0.15240671313806178 %): -3.84%
- inhibition (Thailand/16681/1984, Concentration 198.0 uM, Number of replicates 2.0, Standard deviation 2.223365450237249 %): -4.59%

Structure (SMILES): Nc1cccc2c(Cl)ccnc12
- inhibition (Thailand/16681/1984, Concentration 49.95 uM, Number of replicates 2.0, Standard deviation 9.3539447807875 %): 25.3%
- inhibition (Thailand/16681/1984, Concentration 99.9 uM, Number of replicates 2.0, Standard deviation 4.02175613474424 %): 68.2%

Structure (SMILES): O=Cc1ccc(N2CCC(C(=O)N3CCC[C@H](c4ccccc4)C3)CC2)cc1
- inhibition [1]: 14.1%

Structure (SMILES): O=Cc1ccc(N2CCC(C(=O)N[C@H]3C[C@@H]3c3ccc(F)c(F)c3)CC2)cc1
- inhibition [1]: 12.2%

Structure (SMILES): c1ccc2c(CN3CC[C@H](c4c[nH]c5ccccc45)C3)c[nH]c2c1
- inhibition (Thailand/16681/1984, Concentration 50.0 uM, Number of replicates 2.0, Standard deviation 0.10838753302891979 %): 1.47%
- inhibition (Thailand/16681/1984, Concentration 100.0 uM, Number of replicates 2.0, Standard deviation 0.23086560045200166 %): 6.12%
- inhibition (Thailand/16681/1984, Concentration 200.0 uM, Number of replicates 2.0, Standard deviation 0.3197428515430465 %): 11.5%

Structure (SMILES): Cc1cc(NS(=O)(=O)c2ccc(Oc3ccccc3Cl)cc2)c(C(=O)NCC(F)(F)F)cc1F
- inhibition (Thailand/16681/1984, Concentration 49.5 uM, Number of replicates 2.0, Standard deviation 0.004288863304468577 %): 80.7%
- inhibition (Thailand/16681/1984, Concentration 99.01 uM, Number of replicates 2.0, Standard deviation 0.05387243894141284 %): 85%
- inhibition (Thailand/16681/1984, Concentration 198.0 uM, Number of replicates 2.0, Standard deviation 0.06674981844803736 %): 82.2%

Structure (SMILES): CC(C)(C)OC(=O)NC1CN(C(=O)C2CCN(c3ccc(C=O)cc3)CC2)C1
- inhibition [1]: 12.6%

Structure (SMILES): Fc1ncccc1OCc1cc(Cl)nc(N2CCNCC2)n1
- inhibition (Thailand/16681/1984, Concentration 49.5 uM, Number of replicates 2.0, Standard deviation 1.2407104970939964 %): -5.68%
- inhibition (Thailand/16681/1984, Concentration 99.01 uM, Number of replicates 2.0, Standard deviation 1.7156619842641088 %): -7.07%
- inhibition (Thailand/16681/1984, Concentration 198.0 uM, Number of replicates 2.0, Standard deviation 0.643791762304754 %): -4.9%

Structure (SMILES): O=C1C[C@@H](CNC(=O)c2cc(Cl)ccc2NS(=O)(=O)c2ccc(Oc3ccccc3Cl)cc2)CN1
- inhibition (Thailand/16681/1984, Concentration 49.5 uM, Number of replicates 2.0, Standard deviation 1.683767946709369 %): 12.4%
- inhibition (Thailand/16681/1984, Concentration 99.01 uM, Number of replicates 2.0, Standard deviation 0.12281254481286434 %): 57.2%
- inhibition (Thailand/16681/1984, Concentration 198.0 uM, Number of replicates 2.0, Standard deviation 0.21046989752060982 %): 53.6%

Structure (SMILES): CNC(=O)CCNS(=O)(=O)c1ccc(Oc2ccccc2Cl)cc1
- inhibition (Thailand/16681/1984, Concentration 49.5 uM, Number of replicates 2.0, Standard deviation 0.34853494426765735 %): -0.591%
- inhibition (Thailand/16681/1984, Concentration 99.01 uM, Number of replicates 2.0, Standard deviation 0.38589422688907765 %): 0.431%
- inhibition (Thailand/16681/1984, Concentration 198.0 uM, Number of replicates 2.0, Standard deviation 0.13531355296228656 %): 1.94%

Structure (SMILES): O=Cc1ccc(N2CCC(C(=O)N3CCN(CCOc4ccccc4)CC3)CC2)cc1
- inhibition [1]: 11.7%

Structure (SMILES): Cc1cc(Cl)c2cccc(N)c2n1
- inhibition (Thailand/16681/1984, Concentration 49.95 uM, Number of replicates 2.0, Standard deviation 0.6589137143756747 %): 13.5%
- inhibition (Thailand/16681/1984, Concentration 99.9 uM, Number of replicates 2.0, Standard deviation 0.20071745394997703 %): 27.6%

Structure (SMILES): Cc1c(C(=O)N[C@@H](CO)CS(C)(=O)=O)ccc(O)c1NC(=O)c1ccncc1F
- inhibition (Thailand/16681/1984, Concentration 49.5 uM, Number of replicates 2.0, Standard deviation 0.32546689933300804 %): -1.36%
- inhibition (Thailand/16681/1984, Concentration 99.01 uM, Number of replicates 2.0, Standard deviation 0.3717289134489451 %): -0.135%
- inhibition (Thailand/16681/1984, Concentration 198.0 uM, Number of replicates 2.0, Standard deviation 0.28301457046410705 %): 2.38%

Structure (SMILES): NC(=O)[C@@H]1Cc2ccccc2CN1C(=O)C1CCN(c2ccc(C=O)cc2)CC1
- inhibition [1]: 12%

Structure (SMILES): Cc1cc(CO)c2cccc(NC(=O)C3CC(N)C3)c2n1 (stereo not given)
- inhibition (Thailand/16681/1984, Concentration 49.95 uM, Number of replicates 2.0, Standard deviation 0.3514210972334106 %): 31.4%
- inhibition (Thailand/16681/1984, Concentration 99.9 uM, Number of replicates 2.0, Standard deviation 0.19619256829384746 %): 78.8%

Structure (SMILES): COc1cc(CCNC(=O)C2CCN(c3ccc(C=O)cc3)CC2)cc(OC)c1
- inhibition [1]: 12.9%

Structure (SMILES): O=Cc1ccc(N2CCC(C(=O)N(Cc3cccc(F)c3)C3CCCC3)CC2)cc1
- inhibition [1]: 15%
